Data on 19 molecules can be found in the supplement of paper PMC10037445.

The full ranking holds about 2,900 compounds; the median of “NF-kB SEAP reporter activity, fold change vs agonist alone” is about 0.99, and the highest 2% start at about 2.6. The list shows a part of the results.

The test system of assay [1] is RAW-Dual. The assay is described as follows: NF-kB SEAP reporter activity, fold change vs agonist alone; higher = enhanced NF-kB activity. The following applies: cytotoxicity flag (confluency mask): not cytotoxic. In short, it runs like this: (§1)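 Library stock was pin-tooled at 50 nL into 384-well plates of RAW-Dual macrophages (50,000 cells/well, DMEM), followed 1 h later by a PRR agonist, and the cells were kept at 37 °C, 5% CO2. Supernatant collected after 20 hours was read for IRF by QuantiLuc luminescence and for NF-κB by QuantiBlue absorbance at 620 nm. Reporter activity is fold change over agonist-alone wells, and a well counted as cytotoxic when its IncuCyte confluency was below 70% of agonist controls in both mask sets.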

For assay [2], the system named is RAW-Dual. Put plainly: NF-kB SEAP reporter activity, fold change vs agonist alone; cytotoxicity flag (confluency mask): not cytotoxic; higher = enhanced NF-kB activity. In short, it runs like this:
as §1

The mark [3] stands for this setting: library stock concentration (final ~1000-fold dilution): 10 mM, agonist: Imiquimod (TLR7) […].
Setting [4] is: library stock concentration (final ~1000-fold dilution): 10 mM, agonist: MPLA (TLR4) […].
Where [5] appears, read: agonist: ODN 1826 (TLR9) 0.5 ug/mL.
The mark [6] stands for this setting: agonist: Pam2CSK4 (TLR2/6) 0.1 ug/mL.
Setting [7] is: agonist: Pam3CSK4 (TLR2/1) 0.1 ug/mL.
The mark [8] stands for this setting: library stock concentration (final ~1000-fold dilution): 2 mM, agonist: Imiquimod (TLR7) […].
Where [9] appears, read: library stock concentration (final ~1000-fold dilution): 2 mM, agonist: MPLA (TLR4) […].

Regarding `COc1cc(OC)c(C(=O)CCCN2CCCC2)c(OC)c1.Cl`, the “NF-kB SEAP reporter activity” value in the assay with RAW-Dual [1] (setting [3]) came out at 0.901; in the assay with RAW-Dual [1] (setting [4]), 0.977.
For `COc1cc(OC)c(C(=O)CCCN2CCCC2)c(OC)c1.Cl` (library stock concentration (final ~1000-fold dilution): 10 mM), the “NF-kB SEAP reporter activity” value in the assay on RAW-Dual [2] (agonist: LPS (TLR4) 0.1 ug/mL) turned out to be 1.16; in the assay on RAW-Dual [2] (setting [5]) it was 1.04; in the assay on RAW-Dual [2] (setting [6]) it was 1.11; in the assay with RAW-Dual [2] (setting [7]) it was 1.17.
Take `O=C(Nc1ccc([N+](=O)[O-])cc1Cl)c1cc(Cl)ccc1O` (library stock concentration (final ~1000-fold dilution): 10 mM): in the assay on RAW-Dual [2] (agonist: LPS (TLR4) 0.1 ug/mL), the “NF-kB SEAP reporter activity” value amounted to 6.96.
Regarding `O=C(Nc1cccnc1)N1CCC(Cc2cccc(Oc3ccc(C(F)(F)F)cn3)c2)CC1` (library stock concentration (final ~1000-fold dilution): 10 mM), the “NF-kB SEAP reporter activity” value in the assay with RAW-Dual [2] (agonist: LPS (TLR4) 0.1 ug/mL) is 2.31; with RAW-Dual [2] (setting [5]), 1.06; with RAW-Dual [2] (setting [6]) it was 0.757; with RAW-Dual [2] (setting [7]) it was 0.921.
In the case of `O=C(Nc1cccnc1)N1CCC(Cc2cccc(Oc3ccc(C(F)(F)F)cn3)c2)CC1`, the “NF-kB SEAP reporter activity” value in the assay on RAW-Dual [1] (setting [3]) came out at 1.05; with RAW-Dual [1] (setting [4]) it was 1.46.
Turning to `Cc1cc(C)nc(NS(=O)(=O)c2ccc(NC(=S)NC(=O)COc3ccc(Br)cc3Cl)cc2)n1` (library stock concentration (final ~1000-fold dilution): 10 mM), the “NF-kB SEAP reporter activity” value with RAW-Dual [2] (agonist: LPS (TLR4) 0.1 ug/mL) is 1.5; in the assay on RAW-Dual [2] (setting [5]) it was 0.891; in the assay on RAW-Dual [2] (setting [6]), 1.07; in the assay on RAW-Dual [2] (setting [7]), 1.01.
As to `Cc1cc(C)nc(NS(=O)(=O)c2ccc(NC(=S)NC(=O)COc3ccc(Br)cc3Cl)cc2)n1`, the “NF-kB SEAP reporter activity” value amounted to 0.876 with RAW-Dual [1] (setting [3]) and 1.15 in the assay with RAW-Dual [1] (setting [4]).
For the molecule `Cc1cccc(-c2nn3c(c2-c2ccnc4ccc(C(N)=O)cc24)CCC3)n1`, the “NF-kB SEAP reporter activity” value with RAW-Dual [1] (setting [3]) came to 1.13; in the assay on RAW-Dual [1] (setting [4]) it was 1.48.
For `Cc1cccc(-c2nn3c(c2-c2ccnc4ccc(C(N)=O)cc24)CCC3)n1` (library stock concentration (final ~1000-fold dilution): 10 mM), the “NF-kB SEAP reporter activity” value in the assay on RAW-Dual [2] (agonist: LPS (TLR4) 0.1 ug/mL) is 1.59; in the assay with RAW-Dual [2] (setting [5]), 1.03; with RAW-Dual [2] (setting [6]) it was 1.05; in the assay with RAW-Dual [2] (setting [7]), 1.21.
In the same order, the values of `O=C1Nc2ccccc2C1=O` (library stock concentration (final ~1000-fold dilution): 10 mM) are 1.37, 0.973, 1.3 and 1.
As to `O=C1Nc2ccccc2C1=O`, the “NF-kB SEAP reporter activity” value in the assay with RAW-Dual [1] (setting [4]) stood at 0.991.
For `N#Cc1ncccn1` (library stock concentration (final ~1000-fold dilution): 2 mM), the “NF-kB SEAP reporter activity” value was determined as 1.32 in the assay on RAW-Dual [2] (agonist: LPS (TLR4) 0.1 ug/mL), 1.02 in the assay on RAW-Dual [2] (setting [5]), 1.09 in the assay on RAW-Dual [2] (setting [6]) and 1.05 with RAW-Dual [2] (setting [7]).
For the molecule `N#Cc1ncccn1`, the “NF-kB SEAP reporter activity” value in the assay with RAW-Dual [1] (setting [8]) and in the assay with RAW-Dual [1] (setting [9]) was 1 in each case.
With `CN1C(C(=O)Nc2ccccn2)=C(O)c2sc(Cl)cc2S1(=O)=O`, the “NF-kB SEAP reporter activity” value in the assay on RAW-Dual [1] (setting [8]) is 0.891; with RAW-Dual [1] (setting [9]), 1.08.
In the case of `CN1C(C(=O)Nc2ccccn2)=C(O)c2sc(Cl)cc2S1(=O)=O` (library stock concentration (final ~1000-fold dilution): 2 mM), the “NF-kB SEAP reporter activity” value was 1.38 with RAW-Dual [2] (agonist: LPS (TLR4) 0.1 ug/mL), 0.936 with RAW-Dual [2] (setting [5]), 0.882 in the assay on RAW-Dual [2] (setting [6]) and 0.835 in the assay with RAW-Dual [2] (setting [7]).
For `C=C1CCC2C(C)(COC(=O)CCC(=O)O)C(OC(=O)CCC(=O)O)CCC2(C)C1C=CC1=CCOC1=O` (centres undefined), the entries for the “NF-kB SEAP reporter activity” value in the assay with RAW-Dual [1] (setting [3]) and with RAW-Dual [1] (setting [4]) were 0.865 and 1.03, respectively.
`C=C1CCC2C(C)(COC(=O)CCC(=O)O)C(OC(=O)CCC(=O)O)CCC2(C)C1C=CC1=CCOC1=O` (centres undefined) (library stock concentration (final ~1000-fold dilution): 10 mM): the “NF-kB SEAP reporter activity” value in the assay with RAW-Dual [2] (agonist: LPS (TLR4) 0.1 ug/mL) was determined as 1.34; with RAW-Dual [2] (setting [5]), 0.979; in the assay with RAW-Dual [2] (setting [6]), 1.26; in the assay on RAW-Dual [2] (setting [7]), 1.02.
Regarding `Cc1ccc(CNc2ncnc3ccc(-c4ccc(CO)o4)cc23)o1` (library stock concentration (final ~1000-fold dilution): 10 mM), the “NF-kB SEAP reporter activity” value turned out to be 1.16 in the assay on RAW-Dual [2] (agonist: LPS (TLR4) 0.1 ug/mL), 1.35 in the assay with RAW-Dual [2] (setting [5]), 1.21 in the assay on RAW-Dual [2] (setting [6]) and 1.4 in the assay with RAW-Dual [2] (setting [7]).
Regarding `Cc1ccc(CNc2ncnc3ccc(-c4ccc(CO)o4)cc23)o1`, the entries for the “NF-kB SEAP reporter activity” value with RAW-Dual [1] (setting [3]) and in the assay with RAW-Dual [1] (setting [4]) were 1.07 and 1.24, respectively.
